# Measurements: PubChem BioAssay AID1963576 (National Center for Advancing Translational Sciences (NCATS), 2024)
# The whole screen tested about 46,000 compounds, of which about 60 (0.1%) were called active. Another 3% or so got no clear call; they are omitted. Calls come from the whole dose curve; as a rule, active = well fitted inhibition curve with a large enough effect; inconclusive = small, poorly fitted or top-dose-only effect; inactive = no such curve, though single readings can be large or run the other way. Some of the results follow.
# Assay: Primary qHTS assay for Inhibitors of ovarian cancer metastasis using an organotypic tumor microenvironment (TME) model.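 For Potency: count of GFP cancer cells still attached after washing and fixation.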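 For activity change, negative = inhibition: plate controls were DMSO wells for no effect and tomatine positive control wells for full effect.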 Note: nearly all actives have a fitted effect of over 65% in size.
# Conditions: SKOV3ip1-GFP adhesion/invasion on 3D omental model, fluorescence; series mostly up to 45.8 µM; activity change, negative = inhibition: at the top concentration
# In short: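 Adhesion/invasion was scored as fixed GFP-labeled SKOV3ip1 cell counts (488/509 nm), normalized to DMSO and tomatine controls. Cancer cells in serum-free medium, with four compound doses (0.36-46 umol/L), sat 2 hr at RT then 16 hr at 37 C on a 48 hr fibroblast/mesothelial/ECM culture.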
# Potency is the fitted concentration of half-maximal effect.
Structure (SMILES),"activity change, negative = inhibition",outcome,Potency
CCOc1ccccc1NC(=O)CCc1c(C)nc2c(c(C)nn2-c2ccccc2)c1C,inactive: -4.11%,–,–
C#CCSc1nc(-c2ccccc2)c2cc(Cl)ccc2n1,inactive: 4.29%,–,–
CCc1cccc(NC(=O)C(NS(=O)(=O)c2ccc3nc(C)sc3c2)C(C)C)c1 (stereo not drawn),–,inactive,–
COc1cccc(NC(CNS(=O)(=O)c2ccc(Cl)cc2)c2ccccc2)c1 (stereo not drawn),–,inactive,–
CC(C)c1ccc2c(c1)NC(c1ccncc1)=NC(c1cccs1)=N2,inactive: -8.28%,–,–
COc1ccc(-c2cc(OC(=O)c3ccccc3)c3c(C)oc(C)c3c(=O)c2)cc1OC,inactive: 1.76%,–,–
Cc1cc(C)cc(-n2c(C)nc3cc(C(=O)NCc4ccc(F)cc4)ccc32)c1,inactive: -0.637%,–,–
Cn1nnc2c(NCc3ccccc3)ncnc21,inactive: -11.8%,–,–
CC(C)Cn1c(=O)c2ccccc2n2c(CCC(=O)NCc3ccc(Cl)cc3)nnc12,inactive: -1.7%,–,–
CC(C)(C)NC(=O)[C@H]1CN(Cc2cccnc2)CCN1C[C@@H](O)C[C@@H](Cc1ccccc1)C(=O)N[C@H]1c2ccccc2C[C@H]1O,inactive: 17.7%,–,–
O=C(NCc1ccc(F)cc1)c1ccc(Cn2c(SCc3ccc(F)cc3)nc3cccnc32)cc1,inactive: -8.51%,–,–
Cn1c(=O)oc2cc(S(=O)(=O)NCCC(=O)NCc3ccc(F)cc3)ccc21,inactive: 4.37%,–,–
CCCCn1c(=N)c(C(=O)NC2CCCCC2)cc2c(=O)n3cccc(C)c3nc21,inactive: 23.7%,–,–
CCC(C)NC(=O)c1ccc2c(c1)N(Cc1ccccc1F)C(=O)c1ccccc1S2=O (stereo not drawn),–,inactive,–
O=C(CCC(=O)N1CCSc2ccccc21)NCc1ccccc1Cl,inactive: -0.83%,–,–
Cc1cc(C)cc(NC(=O)c2cnn(-c3ccc(C)c(C)c3)c2C2CCNCC2)c1,–,inactive,–
COc1ccc(C(=O)NCCn2cc(SCc3cc(C)ccc3C)c3ccccc32)cc1,–,inactive,–
COc1ccccc1NC(=O)c1ccc2oc(=O)c(S(=O)(=O)c3ccccc3)cc2c1,–,inactive,–
CCOC(=O)c1c(C)oc2nc(C)nc(NCCCN3CCN(c4ccc(F)cc4)CC3)c12,inactive: 14.6%,–,–
CC(CNS(=O)(=O)c1ccc2c(c1)CC(=O)N2C)c1ccccc1 (stereo not drawn),inactive: -1.75%,–,–

Structure (SMILES),"activity change, negative = inhibition",outcome,Potency
Cc1ccc(C(C)C)c(OCCCn2c(=O)oc3ccccc32)c1,inactive: 2.36%,–,–
Cc1ccccc1CNC(=O)c1cc2cc(S(=O)(=O)N3CCCCC3)ccc2n1C,inactive: 4.47%,–,–
COc1ccc(-n2c(-c3ccco3)nc3c(cnn3-c3ccccc3C)c2=O)cc1,–,inactive,–
CCOc1ccc(C2c3c(oc4ccccc4c3=O)C(=O)N2c2nnc(C)s2)cc1OC (stereo not drawn),inactive: 16.3%,–,–
Cc1cc(N2CCN(c3cccc(C)c3C)CC2)n2nc(C)c(-c3ccc(Cl)cc3)c2n1,inactive: -1.85%,–,–
Cn1c(CNC(=O)CSc2nc(-c3cccc(Cl)c3)nc3cc(=O)[nH]n23)nc2ccccc21,inactive: 1.12%,–,–
Cc1ccc(S(=O)(=O)n2nc(-c3ccco3)nc2NCc2ccccc2Cl)cc1,inactive: 0.395%,–,–
CCn1c(=O)cc(OCC(=O)N2CCN(c3ccccc3OC)CC2)c2ccccc21,inactive: 1.23%,–,–
Cc1ccc(CN2CCN(C3CCN(C(=O)Nc4ccccc4C(F)(F)F)CC3)C(=O)C2=O)cc1,inactive: 0.175%,–,–
Cc1cc(C)c2oc(C(=O)Nc3ccc(S(=O)(=O)N4CCC(C)CC4)cc3)cc(=O)c2c1,inactive: -7.6%,–,–
Cc1cc(C)n2c(Nc3ccccc3)c(-c3ccccc3)nc2n1,inactive: -1.82%,–,–
Cc1cccc(Cn2cnc3c(cnn3-c3ccc(Cl)cc3)c2=O)c1,inactive: 0.177%,–,–
CC(C)NC(=O)C1CCCN(c2ncnc3c2nc2n3CCCCC2)C1 (stereo not drawn),inactive: 13%,–,–
COc1ccc(Cl)cc1NC(=O)Cn1cnc2c1c(=O)n(C)c(=O)n2C,inactive: -1.71%,–,–
CC(NC(=O)c1ccc2c(c1)N(Cc1ccc(Cl)cc1)C(=O)c1ccccc1S2=O)c1ccccc1 (stereo not drawn),inactive: -13.4%,–,–
Cc1ccc(CNC(=O)CCCn2c(=O)c3ccccc3n(Cc3ccccc3C)c2=O)cc1,–,inactive,–
Cc1cccc(C)c1NC(=O)CCCN1C(=O)CCn2nc(-c3cn(C)c4ccccc34)cc21,inactive: -2.28%,–,–
Cc1cccc(Cn2nnc(C(=O)Nc3cc(C)ccc3C)c2N)c1,–,inactive,–
COc1cccc(NC(=O)C2CCN(c3nc4ccccc4nc3C(F)(F)F)CC2)c1,inactive: 44.3%,–,–
O=C(NC1CC(=O)N(c2cccc(F)c2)C1)C(c1ccccc1)c1ccccc1 (stereo not drawn),inactive: 3.94%,–,–

Structure (SMILES),"activity change, negative = inhibition",outcome,Potency
CCc1cc2c(-c3ccccc3)cc(=O)oc2c2c1OCN(Cc1ccc(F)cc1)C2,inactive: 1.06%,–,–
COc1cc(OC)c(NC(=O)Nc2c(C)n(C)n(-c3ccccc3)c2=O)cc1Cl,inactive: 0.265%,–,–
Cc1cc(C)c2sc(NC(=O)c3ccc(S(=O)(=O)N4CCOCC4)cc3)nc2c1,–,inactive,–
Cn1c(=O)n(C)c2cc(N3CCOCC3)c(NC(=O)c3c(F)cccc3F)cc21,inactive: 3.4%,–,–
COc1ccc(C(=O)NCC(c2ccc(N(C)C)cc2)N2CCc3ccccc32)cc1 (stereo not drawn),inactive: 5.06%,–,–
CCCN1CCN(c2cc3c(cc2F)c(=O)c(S(=O)(=O)c2ccc(Cl)cc2)cn3C)CC1,inactive: -9.54%,–,–
COC(=O)c1ccccc1NC(=O)c1ccc2c(=O)n3c(nc2c1)CCCCC3,inactive: -12.9%,–,–
CCOc1ccc(CNC(=O)C2Cc3ccccc3N2C(=O)CC)cc1 (stereo not drawn),inactive: 6.91%,–,–
CCC(Oc1ccccc1)C(=O)Nc1ccc(OCc2cc(=O)n3ccccc3n2)cc1 (stereo not drawn),inactive: 11%,–,–
Cc1cn([C@@H]2C[C@@H](O)[C@H](CO)O2)c(=O)[nH]c1=O,inactive: -5.46%,–,–
O=S(=O)(c1ccc(Cl)cc1)c1nc(-c2ccccc2)oc1N1CCN(c2ccccc2)CC1,–,inactive,–
O=C(Nc1ccc(Br)cc1)c1cccc(C(=O)Nc2ccc(Br)cc2)c1,–,inactive,–
COc1ccc(Nc2c3c(nc4ccc(NC(=O)/C=C/c5cccc(OC)c5OC)cc24)CCCC3)cc1OC,–,–,active: 5.01 µM
CCOC(=O)c1cc(NC(=O)c2ccc(Cl)cc2)c(=O)n2c1oc1ccccc12,inactive: -29.9%,–,–
O=C(CN1C=NS(=O)(=O)c2ccc(C(F)(F)F)cc21)Nc1cccc(C(F)(F)F)c1,–,inactive,–
CO[C@H]1C=CO[C@@]2(C)Oc3c(C)c(O)c4c(O)c(c5c(c4c3C2=O)NC2(CCN(CC(C)C)CC2)N=5)=NC(=O)C(C)=CC=C[C@H](C)[C@H](O)[C@@H](C)[C@@H](O)[C@@H](C)[C@H](OC(C)=O)[C@H]1C,inactive: 7.93%,–,–
Cc1ccc(CN(Cc2cccn2-c2nnc(N3CCCC3=O)s2)C(=O)Nc2ccccc2C(F)(F)F)cc1,inactive: -2.57%,–,–
Cc1ccc(CNC(=O)Cn2c(=O)n(Cc3ccccc3)c(=O)c3sc4ccccc4c32)cc1,inactive: 32.3%,–,–
